Among all 410,000 compounds or so, about 6,400 (1.6%) were called active. The shares of active, inactive and inconclusive entries below differ from those in the screen. The call rests on the fitted dose curve; in most records, active means well fitted inhibition curve with a large enough effect; inconclusive means small, poorly fitted or top-dose-only effect; inactive means no such curve, though single readings can be large or run the other way. No potency is given beside an inconclusive call; the fits are too rough.
What follows are molecules tested against Glucagon-like peptide 1 receptor (Homo sapiens) (UniProt P43220) (assay: qHTS of GLP-1 Receptor Inverse Agonists (Inhibition Mode)). Settings: HEK293 GLP-1R CRE-luciferase, luminescence, 24 h, GLP-1R form is constitutively active; activity change, negative = inhibition: at 38.3 µM (top of the series) unless noted.
UniProt P43220, sequence (P43220 whole entry, looked up): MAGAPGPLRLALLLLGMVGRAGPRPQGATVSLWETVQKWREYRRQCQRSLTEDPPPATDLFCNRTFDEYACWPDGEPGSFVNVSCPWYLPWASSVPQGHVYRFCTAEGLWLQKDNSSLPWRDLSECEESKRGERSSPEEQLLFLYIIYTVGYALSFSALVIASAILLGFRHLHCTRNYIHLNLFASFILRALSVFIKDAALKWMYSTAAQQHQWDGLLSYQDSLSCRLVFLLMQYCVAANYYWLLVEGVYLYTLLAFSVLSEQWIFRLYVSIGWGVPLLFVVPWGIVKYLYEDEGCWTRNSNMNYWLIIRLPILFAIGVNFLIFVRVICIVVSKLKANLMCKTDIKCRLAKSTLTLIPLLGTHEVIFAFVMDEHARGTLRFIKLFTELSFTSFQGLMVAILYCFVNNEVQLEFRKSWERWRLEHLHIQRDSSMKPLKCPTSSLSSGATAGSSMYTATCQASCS
Outline: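 Using stably transfected HEK293 (constitutively active GLP-1R, cAMP-luciferase reporter), compounds were incubated 24 hr and luciferase measured by luminescence.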
In the case of `CN(C)C(=O)c1ccc(Nc2nc(-c3cccs3)nc3ccccc23)cc1`, the Potency is reported as inconclusive [inhibitor, single point]. For `CCOc1cc(S(=O)(=O)Nc2ccccc2CC)ccc1Cl`, the Potency was inconclusive [inhibitor, single point]. In the case of `N#Cc1ccccc1COC(=O)c1ccc2c(c1)OCCO2`, the Potency is reported as inconclusive [inhibitor, single point]. `Cc1ccc(S(=O)(=O)Nc2nc3cc(C)c(C)cc3[nH]2)cc1` was tested, and the Potency was inconclusive [inhibitor, single point]. For `O=C(Nc1ccc(S(=O)(=O)N2CCOCC2)cc1)c1ccc(Cl)cc1`, the Potency was inconclusive [inhibitor, single point]. In the case of `COc1ccccc1NC(=O)CSc1n[nH]c(-c2ccccn2)n1`, the “activity change, negative = inhibition” value is reported as inactive: 12.7%. `O=C(C1CCN(S(=O)(=O)c2ccc3ccccc3c2)CC1)N1CCN(c2ncccn2)CC1` was tested, and the Potency was inconclusive [inhibitor, partial curve, poor fit]. For `CCOC(=O)C/C(C)=N\Nc1nc(-c2ccccc2)cs1`, the Potency was inconclusive [inhibitor, partial curve, poor fit]. In the case of `COc1cccc(/C=N/NC(=O)CNC(=O)c2cccnc2)c1O`, the Potency is reported as inconclusive [inhibitor, full curve, poor fit]. For `CCOC(=O)C1(CCOc2ccccc2)CCN(Cc2cnc(C)[nH]2)CC1`, the Potency was inconclusive [inhibitor, single point]. `Cc1cc(Cl)ccc1NC(=S)NCC(O)c1ccccc1` (centres undefined) was tested, and the Potency was inconclusive [inhibitor, single point]. In the case of `COc1cc2c(cc1OC)C1(Nc3c-2c(Cc2ccccc2)nn3-c2ccccc2)C(=O)Nc2ccccc21` (centres undefined), the Potency is reported as inconclusive [inhibitor, partial curve, poor fit]. For `CCOc1ccccc1NC(=O)CCNC(=O)Cn1ccc2ccccc2c1=O`, the “activity change, negative = inhibition” value was inactive: 3.37%. With `CCc1ccccc1NC(=O)c1ccc(Cn2nc(N3CCN(c4ccccc4)CC3)ccc2=O)o1` the Potency was inconclusive [inhibitor, single point]. `Cc1ccc(CSCC(=O)N(C)CC(=O)Nc2ccc(Cl)c(Cl)c2)cc1` was tested, and the Potency was inconclusive [inhibitor, full curve, poor fit]. In the case of `COc1ccc(N2CCN(C3CCCN(Cc4cccc(C)c4)C3)CC2)cc1` (centres undefined), the Potency is reported as inconclusive [inhibitor, single point]. For `Cc1nc2c(OCc3ccc(C#N)cc3)cccn2c1N(C)Cc1cccs1`, the Potency was inconclusive [inhibitor, single point]. With `COc1cc(C(=O)Nc2ccc(Cl)c(C(F)(F)F)c2)cc(OC)c1OC` the Potency was inconclusive [inhibitor, partial curve, poor fit]. `Cc1cccc(N2CCN(C(=O)c3cnn(-c4ccc(F)cc4F)c3C3CCN(C(=O)OC(C)(C)C)CC3)CC2)c1C` was tested, and the “activity change, negative = inhibition” value was inactive: 11.6%. In the case of `Cc1nc(SCC(=O)N(C)C2(C#N)CCCCC2)c2ccccc2n1`, the Potency is reported as inconclusive [inhibitor, single point]. For `Cc1ccc(CNC(=O)Cn2nc(N3CCN(c4ccccc4)CC3)ccc2=O)cc1`, the “activity change, negative = inhibition” value was inactive: 0.503%. `CCN(c1ccccc1)S(=O)(=O)c1ccc(Cl)c(C(=O)NCCc2ccc(OC)cc2)c1` was tested, and the Potency was inconclusive [inhibitor, single point]. In the case of `CCOc1ccc(NC(=O)CC2C(=O)N(c3ccccc3)C(=O)N2C2CCCC2)cc1` (centres undefined), the Potency is reported as inconclusive [inhibitor, single point]. For `c1ccc(CN2CCN(c3nc(NCc4ccco4)c4ccccc4n3)CC2)cc1`, the Potency was inconclusive [inhibitor, partial curve, poor fit]. For `CCc1ccc(-c2cc(C)no2)cc1S(=O)(=O)N1CCN(c2cc(C)ccc2C)CC1`, the Potency was inconclusive [inhibitor, single point]. With `C1=C[C@H]2CCCN3CC[C@@H]([C@@H]2[C@]32CO2)[C@H]1CCOCc1ccccc1` the Potency was inconclusive [inhibitor, single point]. With `Cc1ccc(Oc2ncnc(N)c2[N+](=O)[O-])cc1C` the Potency was inconclusive [inhibitor, single point]. In the case of `CCCn1c2ccccc2c2cnn(CC(=O)N(CC)c3cc(C)ccc3C)c(=O)c21`, the Potency is reported as inconclusive [inhibitor, partial curve, poor fit]. For `CCOC(=O)c1cc2c(=O)n3ccccc3nc2n(Cc2ccco2)c1=NC(=O)c1cccc(C)c1`, the “activity change, negative = inhibition” value was inactive: -20.4%. `CCOC(=O)C1=CN(Cc2ccco2)S(=O)(=O)N(CC)C1c1ccc(C(F)(F)F)cc1` (centres undefined) was tested, and the Potency was inconclusive [inhibitor, partial curve, poor fit]. With `CCNS(=O)(=O)c1ccc(NC(=O)Nc2ccc3c(c2)OCO3)cc1` the Potency was inconclusive [inhibitor, partial curve]. For `S=C(NC1CCCC1)N1CCN(C/C=C/c2ccccc2)CC1`, the Potency was inconclusive [inhibitor, partial curve, poor fit]. `CC(=O)c1nc2ccccc2n1CCc1ccccc1` was tested, and the Potency was inconclusive [inhibitor, single point]. `O=C(Nc1cccc(CCc2ccccn2)c1)c1cc(F)c(F)cc1Cl` was tested, and the Potency was inconclusive [inhibitor, single point]. With `O=S(=O)(c1c(F)cccc1F)N(CCc1ccc(F)cc1)C[C@@H](O)COCc1ccccc1` the Potency was inconclusive [inhibitor, partial curve, poor fit]. `O=C(Nc1nccs1)c1cc2c(s1)-c1ccccc1OC2` was tested, and the “activity change, negative = inhibition” value was inactive: -14.7%. For `C=CCc1ccccc1OCc1nc2ccc(C)cc2[nH]1`, the Potency was inconclusive [inhibitor, single point]. `O=C(NC1CCCCC1)C(c1cc2ccccc2o1)n1c(=O)c(-c2ccco2)nc2ccccc21` (centres undefined) was tested, and the Potency was inconclusive [inhibitor, single point]. For `CCOc1cc(CNCCO)cc(Br)c1OCc1ccc(Cl)cc1`, the Potency was inconclusive [inhibitor, partial curve, poor fit].

From PubChem BioAssay AID624417 (National Center for Advancing Translational Sciences (NCATS), 2012)
Further: nearly all actives have a fitted effect of over 55% in size.
On the % scale 0 is the no-effect control and ±100 the full control effect; potency means the concentration at half of the fitted maximal effect; tags describe the fitted curve by direction and shape.
